# Measurements reported in the supplement of paper PMC11417369.
# The list shows a part of the results.
# Test system: PF3D7_0420300 AP2 domain 1 (GST-tagged)
# Assay: gcPBM binding intensity (ln(normalized median fluorescence intensity)); higher = stronger DNA binding
# In short: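 Plasmodium falciparum DNA-binding domains carrying a GST tag were expressed in E. coli and applied for 1 h, at about 25 μg on average, to an Agilent 4 × 180k array. The array held primer-extended double-stranded 36-bp intergenic genomic probes together with negative controls, and binding took place in 1× PBS with 1% milk, 0.2 mg/ml BSA, 0.5% salmon testes DNA and 0.03% Triton X-100. An Alexa488 anti-GST antibody detected bound protein, and the array was scanned at 488 nm. Binding intensity is taken as the highest Masliner-normalised natural-log median intensity across replicate spots of either probe orientation.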
row,Sequence,gcPBM binding intensity (ln)
1,TTTCTTGGGAGACATGCATGTACCAGAACAAAATAA [TGCATGCA_site272],9.24
2,TATATATAGCATATTTCACACACACCGAATGAATAT [CACACA_site9182],9.83
3,TTATCCTTGTAACAATGTACACATTATTTAATACTT [XGTACX_site1830],9.29
4,GCATAAACGGATAATTAATTATATTATATTATATCA [CACACA_negctrl_site1519],9.08
5,TCGTGAATGATTTAAGTACACACCGGTATTTATTCA [CACACA_site1564],9.46
6,ATTTATTTATATATATTATTTGTTTTAATTTACTTA [XGTACX_negctrl_site246],9.21
7,TATTGTTGTCTTTACACATGCAACAAAAGAAGAAAA [TGCATGCA_site911],9.14
8,CATACAGATGGACACACACACACACCCACAGACAAA [CACACA_site4431],10.1
9,TTTTTTTTTTGATGCACACACCTGAACGAGTTAATA [CACACA_site4329],9.56
10,TTCATAAGAAGGAACTGTACATATTTTTCATTTTTT [XGTACX_site6770],9.15
11,AACAGGTCATAATTTACACACTATATATCTTATTAT [CACACA_site6461],9.72
12,CGATTTTTTTTTTATTGTACTTGCTCGCATGCAATA [XGTACX_site4727],9.07
13,TGTATACCTTAATATACACACATACAGATATATATA [CACACA_site4860],9.49
14,TACAATCTTTCATTATGTACTTAACATTTTTTCTGT [XGTACX_site8752],9.39
15,TTATATGTATATATATGTATATATATATATATATAG [TGCATGCA_negctrl_site461],8.98
16,TGTTTTATTTAGAAGGTGCACATTAATATTAAATAA,9.04
17,ATATGCATTTTTATACGTACATATTTCTTTTCGTTA [XGTACX_site1497],9.52
18,ACAAAAGGGGAATACACACACATATATAAATAAATA [CACACA_site7111],9.84
19,CATATTTTTATGAGATGTACAATAAGAAATATGTAA [XGTACX_site2389],9.09

row,Sequence,gcPBM binding intensity (ln)
1,TATGTATTTATATTAACACACAAAAAAAAAAAAAAA [CACACA_site5070],9
2,ATATGGCTAAAAGTTGCACACACACTAATAAAAAAA [CACACA_site9082],9.76
3,ATTATTTTACTAAAAGATATTCCTTTTTTTTGTACT [CACACA_negctrl_site998],9.18
4,ATATGCCTAATAAAATGTACGTTTGTTTTATTTATT [XGTACX_site3833],9.5
5,ATATATATATTTTGGTAGCACCTCCTTTTTTTTTTT,9.55
6,TAAAAATTAATATAAACACACAAAAATTAATAAATA [CACACA_site381],9.56
7,TATAACAAGTTATAAAGTACAAATGTTGAATTTTAT [XGTACX_site4673],9.14
8,TCGGGAGGGGGGAAGCGTACATATATAAAATTATTA [XGTACX_site4683],10.2
9,TATAGATACAGATACACACACACACCGACATATATA [CACACA_site5832],10.2
10,GAATGTATATTCATGTATTTATTATTATTATTATTA [XGTACX_negctrl_site156],9.23
11,TTCTTCTGTTTTATTACACACCATTTTGTGGATACA [CACACA_site5181],9.61
12,TACCTAGGATTAAAGTGTCCACATAATTTAAATAAT [XGTACX_site6736],9.04
13,TATATAAATAGACACACACACATATAAATATAAATA [CACACA_site6503],10.1
14,TTTTTTATTATATAATTGTATATAAAATTATAATTT [GTGCAC_negctrl_site733],8.98
15,TAACTTGAATGGATATGTACATATATATATATATAT [XGTACX_site5990],9.16
16,ATTCATCTATTTTGTAGTACTAAATATATATCTACT [XGTACX_site8790],9.46
17,TAGATGTATGTACATACACACATATATAAATAAATA [CACACA_site1788],9.4
18,AATAAACATATATACACACACAAAAAAAAAAACATA [CACACA_site424],10.2
19,GGTAAGTACGACTTGACACACATACCCATATATATA [CACACA_site4837],9.42

row,Sequence,gcPBM binding intensity (ln)
1,ACAGTATCTGGTAGCTGTACGAGTCGTAGAGTGCAG [XGTACX_site2015],9.27
2,GCGAAATATTATTATAGTATACAAATACTTCTATGA [CACACA_negctrl_site197],9.01
3,GGTGTTAAAAAATACACACACAAAAAAAAAAAAAAA [CACACA_site138],9.15
4,TTTTTTTAATTTGGTTGTACTTAAAAAAAAAACAGA [XGTACX_site5788],8.78
5,TTCACAAAATATTATTGTACATTAAAATATTTATAT [XGTACX_site2535],8.94
6,TATAAAACGGATGAACAACAAATCATATGGCACAAA [TGCATGCA_negctrl_site608],9.79
7,TACATGATATATCACACACACATATAAATATATATA [CACACA_site2831],9.88
8,GAAAATTTCTTATTTTGTACACACAATAAATATTCA [XGTACX_site3267],9.29
9,GTTTTTTTATTTCATCGTACAAAAAAGAAGGCTTTA [XGTACX_site5291],8.89
10,TTATATATTTATTTATGTACATATTTTTTTATTATA [XGTACX_site6115],9.39
11,TAAATATGTATTCATACATGCACATATATATATATA [TGCATGCA_site584],9.19
12,TTTATACTTGTAAATGCACACATAAGATGCGACTAA [CACACA_site8662],9.18
13,ATATCCTTAAAAGATACACACATATGAATATTTTGT [CACACA_site3847],9.42
14,GTTTGTAAATATTTTACACACATATATATATATATA [CACACA_site1075],9.56
15,ATTATAGACACGCGCACACACAACAAAAAAAAAAAA [CACACA_site9180],9.81
16,TTGGGGTATCTTCCTATGCACACTTGTTATGTACTA [CACACA_site831],9.54
17,TTGCTCACAAGAAGCACACAAAAAAAGAAAAAAAAA [CACACA_site4047],9.13
18,ATACTTTTAAATTGATGTACTTTATTTATAAGGTGA [XGTACX_site6746],9.07
19,TTGATTACTAGAAATGCACACACTGATAAAATAAGG [CACACA_site4134],9.54
